Drawing on paper PMC12820563, “FoxP3 forms a head-to-head dimer in vivo and stabilizes its multimerization on adjacent microsatellites”, this text covers binding signal for 32 sequences.

Some of the results follow.

The target of this assay is T1, MBP-FoxP1dN (Mus musculus, UniProt P58462 326-579).
T1 sequence: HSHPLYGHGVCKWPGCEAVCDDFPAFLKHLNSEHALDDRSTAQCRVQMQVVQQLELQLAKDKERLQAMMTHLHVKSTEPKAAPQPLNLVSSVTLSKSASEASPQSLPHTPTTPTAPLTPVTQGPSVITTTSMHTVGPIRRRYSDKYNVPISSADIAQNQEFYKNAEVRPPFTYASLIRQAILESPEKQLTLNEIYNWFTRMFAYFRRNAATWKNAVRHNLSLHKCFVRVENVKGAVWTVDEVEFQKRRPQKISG
Nature of the assay: PD-seq (MBP pull-down with sequencing); 20 mM Tris-HCl pH 7.5, 100 mM NaCl, 1.5 mM MgCl2, 0.4 uM protein, 0.1 uM dsDNA library, 30 min, room temperature, amylose pull-down; high values mean tight binding. The settings on record: protein: recombinant; tags: His6-MBP; chain copies: 2; dsDNA, one strand shown. The essentials: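 Amylose resin was used to capture complexes formed during 30 min at room temperature in Tris pH 7.5 buffer with NaCl and MgCl2 between 0.4 µM His6-MBP-tagged mouse FoxP3 or FoxP1 fragment lacking the N-terminus, expressed in E. coli, and 0.1 µM Klenow-filled double-stranded degenerate DNA library. After three washes, the DNA was released with proteinase K, barcoded by PCR and sequenced on Illumina. Binding is pooled-replicate reads-per-million enrichment, pull-down over input.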
As to “GATGATTGTTCTCCCAGCTGATGAATTCTAAAAGTCGAGTAAACAAATTTTCCTAATCTTTCTGTTCAAGCGCCATCTAC”, the binding signal was 0.824 RPM ratio (pull-down/input).

As to “GATGATTGTTCTCCCAGCTGATGAATTAGCGATTTCGAGTAAACAAATTTTCCTAATCTTTCTGTTCAAGCGCCATCTAC”, the binding signal was 1.01 RPM ratio (pull-down/input).

Regarding “GATGATTGTTCTCCCAGCTGATGAATTGCGCGCGTCGAGTAAACAAATTTTCCTAATCTTTCTGTTCAAGCGCCATCTAC”, the binding signal is 1.17 RPM ratio (pull-down/input).

Take “GATGATTGTTCTCCCAGCTGATGAATTTGCTCCCTCGAGTAAACAAATTTTCCTAATCTTTCTGTTCAAGCGCCATCTAC”: the binding signal is 0.995 RPM ratio (pull-down/input).

“GATGATTGTTCTCCCAGCTGATGAATTGTCTCCTTCGAGTAAACAAATTTTCCTAATCTTTCTGTTCAAGCGCCATCTAC”: the binding signal was 1.08 RPM ratio (pull-down/input).

As for “GATGATTGTTCTCCCAGCTGATGAATTTTCAGCGTCGAGTAAACAAATTTTCCTAATCTTTCTGTTCAAGCGCCATCTAC”, the binding signal was 0.878 RPM ratio (pull-down/input).

On to “GATGATTGTTCTCCCAGCTGATGAATTCATGCTGTCGAGTAAACAAATTTTCCTAATCTTTCTGTTCAAGCGCCATCTAC”, for which the binding signal is 1.07 RPM ratio (pull-down/input).

In the case of “GATGATTGTTCTCCCAGCTGATGAATTGGCGTTGTCGAGTAAACAAATTTTCCTAATCTTTCTGTTCAAGCGCCATCTAC”, the binding signal was 1.01 RPM ratio (pull-down/input).

Turning to “GATGATTGTTCTCCCAGCTGATGAATTTGGGTTATCGAGTAAACAAATTTTCCTAATCTTTCTGTTCAAGCGCCATCTAC”, the binding signal was 0.936 RPM ratio (pull-down/input).

For “GATGATTGTTCTCCCAGCTGATGAATTACAGGGTTCGAGTAAACAAATTTTCCTAATCTTTCTGTTCAAGCGCCATCTAC”, the binding signal was 0.977 RPM ratio (pull-down/input).

As for “GATGATTGTTCTCCCAGCTGATGAATTAGGAATGTCGAGTAAACAAATTTTCCTAATCTTTCTGTTCAAGCGCCATCTAC”, the binding signal is 0.887 RPM ratio (pull-down/input).

Consider “GATGATTGTTCTCCCAGCTGATGAATTGTGGTTCTCGAGTAAACAAATTTTCCTAATCTTTCTGTTCAAGCGCCATCTAC”, for which the binding signal is 1.06 RPM ratio (pull-down/input).

For the sequence “GATGATTGTTCTCCCAGCTGATGAATTAGATAAGTCGAGTAAACAAATTTTCCTAATCTTTCTGTTCAAGCGCCATCTAC”, the binding signal is 0.925 RPM ratio (pull-down/input).

Turning to “GATGATTGTTCTCCCAGCTGATGAATTGGAGTGGTCGAGTAAACAAATTTTCCTAATCTTTCTGTTCAAGCGCCATCTAC”, the binding signal is 0.855 RPM ratio (pull-down/input).

In the case of “GATGATTGTTCTCCCAGCTGATGAATTAGAAATGTCGAGTAAACAAATTTTCCTAATCTTTCTGTTCAAGCGCCATCTAC”, the binding signal is 0.923 RPM ratio (pull-down/input).

On to “GATGATTGTTCTCCCAGCTGATGAATTTGACCACTCGAGTAAACAAATTTTCCTAATCTTTCTGTTCAAGCGCCATCTAC”, for which the binding signal was 0.853 RPM ratio (pull-down/input).

In the case of “GATGATTGTTCTCCCAGCTGATGAATTAGCTTATTCGAGTAAACAAATTTTCCTAATCTTTCTGTTCAAGCGCCATCTAC”, the binding signal is 0.963 RPM ratio (pull-down/input).

For the sequence “GATGATTGTTCTCCCAGCTGATGAATTAGGATTCTCGAGTAAACAAATTTTCCTAATCTTTCTGTTCAAGCGCCATCTAC”, the binding signal is 0.864 RPM ratio (pull-down/input).

Regarding “GATGATTGTTCTCCCAGCTGATGAATTGGTAATGTCGAGTAAACAAATTTTCCTAATCTTTCTGTTCAAGCGCCATCTAC”, the binding signal was 1.11 RPM ratio (pull-down/input).

In the case of “GATGATTGTTCTCCCAGCTGATGAATTAGGGCAATCGAGTAAACAAATTTTCCTAATCTTTCTGTTCAAGCGCCATCTAC”, the binding signal was 1.09 RPM ratio (pull-down/input).

With “GATGATTGTTCTCCCAGCTGATGAATTTGCCTAATCGAGTAAACAAATTTTCCTAATCTTTCTGTTCAAGCGCCATCTAC”, the binding signal is 1.06 RPM ratio (pull-down/input).

“GATGATTGTTCTCCCAGCTGATGAATTCATGGGCTCGAGTAAACAAATTTTCCTAATCTTTCTGTTCAAGCGCCATCTAC”: the binding signal is 0.786 RPM ratio (pull-down/input).

As to “GATGATTGTTCTCCCAGCTGATGAATTAGTGTTGTCGAGTAAACAAATTTTCCTAATCTTTCTGTTCAAGCGCCATCTAC”, the binding signal was 2.53 RPM ratio (pull-down/input).

As to “GATGATTGTTCTCCCAGCTGATGAATTACTTCGGTCGAGTAAACAAATTTTCCTAATCTTTCTGTTCAAGCGCCATCTAC”, the binding signal was 0.92 RPM ratio (pull-down/input).

In the case of “GATGATTGTTCTCCCAGCTGATGAATTACGGTTCTCGAGTAAACAAATTTTCCTAATCTTTCTGTTCAAGCGCCATCTAC”, the binding signal was 0.967 RPM ratio (pull-down/input).

Consider “GATGATTGTTCTCCCAGCTGATGAATTCGGAGCCTCGAGTAAACAAATTTTCCTAATCTTTCTGTTCAAGCGCCATCTAC”, for which the binding signal is 0.794 RPM ratio (pull-down/input).

In the case of “GATGATTGTTCTCCCAGCTGATGAATTCGTTGTATCGAGTAAACAAATTTTCCTAATCTTTCTGTTCAAGCGCCATCTAC”, the binding signal is 1.3 RPM ratio (pull-down/input).

With “GATGATTGTTCTCCCAGCTGATGAATTACAGTAATCGAGTAAACAAATTTTCCTAATCTTTCTGTTCAAGCGCCATCTAC”, the binding signal was 1.62 RPM ratio (pull-down/input).

Consider “GATGATTGTTCTCCCAGCTGATGAATTTCGCATATCGAGTAAACAAATTTTCCTAATCTTTCTGTTCAAGCGCCATCTAC”, for which the binding signal was 0.995 RPM ratio (pull-down/input).

For the sequence “GATGATTGTTCTCCCAGCTGATGAATTCGCCCATTCGAGTAAACAAATTTTCCTAATCTTTCTGTTCAAGCGCCATCTAC”, the binding signal is 0.823 RPM ratio (pull-down/input).

Take “GATGATTGTTCTCCCAGCTGATGAATTGGGGCGTTCGAGTAAACAAATTTTCCTAATCTTTCTGTTCAAGCGCCATCTAC”: the binding signal was 0.91 RPM ratio (pull-down/input).

Take “GATGATTGTTCTCCCAGCTGATGAATTCCACCTGTCGAGTAAACAAATTTTCCTAATCTTTCTGTTCAAGCGCCATCTAC”: the binding signal was 0.729 RPM ratio (pull-down/input).
